Among the data in PubChem BioAssay AID463173 (ICCB-Longwood Screening Facility, Harvard Medical School, 2010) are survival values, retold here.

SMILES strings stand for the structures. Screen size: about 52,000 compounds; about 4,300 (8.3%) were called active. Cut-off read from the data, not from the text of the source: active = survival mostly below about 52% (no sharp cut-off); inactive = mostly above about 56%. The list shows a part of the results.

For the assay, the system named is DeltatarO mutant. The experiment in a line: S. aureus survival, RN4220 and DeltatarO strains – OD600, teichoic acid synthesis inhibitors, primary screen (AID 463173). The settings on record: S. aureus RN4220 wild type/DeltatarO growth, OD600, 18 h, active compounds read low, screened at 18.75 µg/mL (by protocol).
Turning to `CC(=O)c1cccc(NS(=O)(=O)c2ccc3c(c2)NC(=O)CC(=O)N3)c1`, the survival was inactive: 93%.
The same measure for `CCOC(=O)C1CCCN(C(=O)c2ccc(-n3ccc4ccccc43)s2)C1` (stereo not given): active: -1%; for `CCS(=O)(=O)c1ncc(N(Cc2ccc(F)cc2)Cc2ccco2)c(C(=O)Nc2cc(C)ccc2C)n1`: inactive: 58%; for `CCOC(=O)C1CCN(C(=O)CN2c3ccc(CC)cc3-c3ccccc3S2(=O)=O)CC1`: inactive: 99%.
For `CCC(=O)Nc1ccc2nc(SCCOc3ccc(C)cc3)sc2c1` the value was inactive: 97%.
The same measure for `CCCN(CCC)C(=O)Cn1c(=O)n(-c2ccc(OC)cc2)c(=O)c2ccc(C(=O)NCc3ccc(C)cc3)cc21`: inactive: 74%.
Regarding `CCCn1c(NCc2ccc(N(CC)CC)cc2)nc2ccccc21`, the survival was active: 29%.
Turning to `CN(C)CCOC(=O)CC12CC3CC(C1)CC(CC(=O)OCCN(C)C)(C3)C2`, the survival is inactive: 95%.
For `CN1CCN(c2nc3c(S(=O)(=O)c4ccccc4)nnn3c3ccsc23)CC1` the value was inactive: 86%; for `Cc1ccc(-n2c(SCC(=O)Nc3cccc(C)c3)nc3c(oc4ccccc43)c2=O)cc1`, inactive: 99%.
The same measure for `COc1cccc(C(=O)c2cn(CC(=O)NCc3ccccc3Cl)c3nc(C)ccc3c2=O)c1`: inactive: 85%; for `O=C(Nc1cccc(O)c1)c1noc2c1CCc1ccccc1-2`: inactive: 54%; for `CCCOc1cccc(C2c3c(oc4ccccc4c3=O)C(=O)N2c2nncs2)c1` (stereo not given): inactive: 69%.
`Cc1ccc(-c2nc(CS(=O)CC(=O)N3CCN(c4cccc(Cl)c4)CC3)c(C)o2)cc1` (stereo not given): the survival is inactive: 46%.
`Cc1ccc(C)c(Cn2c(CCCNC(=O)C3CCCCC3)nc3ccccc32)c1`: the survival was inactive: 61%.
Take `c1ccc2c(c1)Nc1nc3ccccc3nc1N2`: the survival is inactive: 85%.
The same measure for `Cc1nc(-c2cccc(NC(=O)Nc3ccccc3C(F)(F)F)c2)no1`: inactive: 130%.
For `Cc1c(Cl)cccc1NC(=O)Cn1cc(C(=O)c2cccs2)c2ccccc21` the value was inactive: 168%; for `O=C(CSc1nc2ccsc2c(=O)n1Cc1ccccc1Cl)NCc1ccc(F)cc1`, inactive: 41%; for `CCc1ccc(-n2c(=O)c3sc4ccccc4c3n(CC(=O)N3CCCC3)c2=O)cc1`, inactive: 95%.
With `CCOc1ccc(C2CC(=O)Nc3cc4c(cc32)OCO4)cc1OC` (stereo not given), the survival is inactive: 120%.
For `COc1ccc(-c2cc(C)no2)cc1S(=O)(=O)NCc1cccs1` the value was inactive: 86%; for `CCc1cccc(NC(=O)CN2Cc3ccccc3C2=O)c1`, inactive: 126%.
The same measure for `CCOC(=O)c1c(S(=O)(=O)N2CCCC(C(=O)Nc3ccccn3)C2)c(C)n(C)c1C` (stereo not given): inactive: 89%; for `COc1cc(CNC(=O)C2CCCCN2S(=O)(=O)c2ccc(F)cc2)cc(OC)c1OC` (stereo not given): inactive: 83%.
